According to article PMC7170532 (2020):

Target: SRK-015
Test: BLI

SRK-015, sequence (O14793 other isoform, or with tags, fused parts or gaps): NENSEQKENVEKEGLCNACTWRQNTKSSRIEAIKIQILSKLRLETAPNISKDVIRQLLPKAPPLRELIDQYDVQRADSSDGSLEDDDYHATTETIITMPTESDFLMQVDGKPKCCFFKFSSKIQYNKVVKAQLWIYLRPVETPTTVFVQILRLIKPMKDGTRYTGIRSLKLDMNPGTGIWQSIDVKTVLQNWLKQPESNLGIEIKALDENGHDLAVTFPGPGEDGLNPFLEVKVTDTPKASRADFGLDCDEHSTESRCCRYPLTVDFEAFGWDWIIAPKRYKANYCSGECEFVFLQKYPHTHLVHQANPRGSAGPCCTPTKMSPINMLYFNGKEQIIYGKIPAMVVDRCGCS

B1: pro-myostatin (uncleavable precursor, D99A/R263A/R266A) (natural protein)
chain: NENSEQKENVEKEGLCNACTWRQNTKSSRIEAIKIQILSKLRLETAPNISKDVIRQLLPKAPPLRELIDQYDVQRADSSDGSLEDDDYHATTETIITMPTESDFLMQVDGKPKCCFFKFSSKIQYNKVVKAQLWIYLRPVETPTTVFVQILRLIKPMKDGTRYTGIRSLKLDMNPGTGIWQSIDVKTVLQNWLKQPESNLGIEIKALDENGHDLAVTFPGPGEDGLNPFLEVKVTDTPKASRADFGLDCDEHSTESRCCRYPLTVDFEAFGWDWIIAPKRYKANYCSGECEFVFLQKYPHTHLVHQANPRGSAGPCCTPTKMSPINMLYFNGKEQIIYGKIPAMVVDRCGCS
Question: With B1 as the binder, how does the Kd read?
Answer: 821 pM
